Here are results for 53 compounds from ChEMBL document CHEMBL4888484, “Replenishing the malaria drug discovery pipeline: Screening and hit evaluation of the MMV Hit Generation Library 1 (HGL1) against asexual blood stage Plasmodium falciparum ,using a nano luciferase reporter read-out” (2022).

Screen size: about 150,000 compounds; about 540 (0.36%) showed an effect of 50% or more. The list shows a part of the results.

The assay has as its system Plasmodium falciparum. The assay can be described thus: Primary screen in NF54 nanoGlo assay, in single point, at 2uM, 72h; a lower Z score goes with more inhibition. In kind it is functional, Erythrocyte. To be noted: timepoint 72 hour.
`COc1ccc2c(c1)CCc1c(C(=O)N3CCC(Cc4nc(C5CCOCC5)no4)CC3)n[nH]c1-2`: the “% Inhibition” value is on record as -2% and the Z score is reported as 0.28.
The like results for `Cn1c(COc2ccc(-c3ccccc3)cc2Cl)cc(=O)n(C)c1=O` were, in that order, -10% and 1.03.
The like results for `Cc1cc(C(=O)Cn2cc(C[C@H](O)c3ccccn3)nn2)c(C)n1-c1nccs1` were, in that order, -10% and 1.21.
The like results for `CS(=O)(=O)NC1CCCCC1CNC(=O)C1CC1(F)F` (stereo unspecified) were, in that order, -1% and 0.2.
Regarding `c1ccc(-c2cc(-c3nnc4n3CCCCC4)[nH]n2)cc1`, the “% Inhibition” value worked out at 26% and the Z score is given as -2.96.
Take `Cc1cc(C(=O)NCC(C)(C)n2cccn2)ns1`: the “% Inhibition” value was -21% and the Z score is given as 2.2.
`O=C(NC1CCCCC1)c1[nH]cnc1C(=O)N1CC[C@H](O)C1`: the “% Inhibition” value is 6% and the Z score is on record as -0.73.
The like results for `CCC(C)N1CC(=O)N2Cc3[nH]c4ccccc4c3CC2C1=O` (stereo unspecified) were, in that order, -8% and 1.32.
The like results for `CC(=O)c1cn(Cc2nc3ccc(F)cc3o2)c(=O)n(C)c1=O` were, in that order, 3% and -0.26.
The like results for `CO[C@@H](CNC(=O)c1ccon1)C(C)(C)C` were, in that order, 2% and -0.28.
Regarding `O=C(NCCc1cc(N2CCCC2)ncn1)[C@H]1C[C@H]2C=C[C@@H]1C2`, the “% Inhibition” value is reported as 0% and the Z score was -0.04.
As to `Cc1ncsc1CN[C@@H](C)c1ncc(Cl)n1C`, the “% Inhibition” value was found to be 12% and the Z score is reported as -1.46.
The like results for `CCCCC1CCC(c2nnc(-c3ccc(Cl)cc3)o2)CC1` (stereo unspecified) were, in that order, 4% and -0.69.
The like results for `Cc1cccc(S(=O)(=O)N2CC[C@@H](C(F)(F)F)n3nccc32)c1` were, in that order, 5% and -0.81.
The like results for `O=C1N[C@H]2CCC[C@@H]1CN(C(=O)NCc1cc3ccc(F)cc3[nH]c1=O)C2` were, in that order, 2% and -0.29.
Turning to `CC[C@H]1C(=O)N(C)CCN1C(=O)c1coc(COc2cccc(F)c2)n1`, the “% Inhibition” value was -5% and the Z score came to 0.96.
As to `CC[C@H](NC(=O)[C@H]1C[C@@H]1c1ccccc1)C(F)(F)F`, the “% Inhibition” value was found to be 0% and the Z score is recorded as -0.03.
In the case of `O=C(c1cc2ccccc2[nH]1)N1CC[C@H](c2ncon2)C1`, the “% Inhibition” value is given as -4% and the Z score was found to be 0.74.
The like results for `O=C(NCC[C@H]1CCCN(Cc2ccco2)C1)c1cncnc1` were, in that order, -4% and 0.56.
The like results for `C[C@@H](CN)C(=O)N(CC1CC1)c1ccccc1` were, in that order, -9% and 1.53.
`COc1ccc(S(=O)(=O)N(CCN(C)C)Cc2ccccc2F)cn1`: the “% Inhibition” value is reported as -11% and the Z score is reported as 1.71.
In the case of `CCOc1ncccc1CNC(=O)c1cnc(N2CCN(C)CC2)nc1C`, the “% Inhibition” value was -7% and the Z score is reported as 0.8.
The like results for `Cn1c(=O)n(C)c2cc(-c3nc4c([nH]3)C[C@H](c3ccccc3)CNC4=O)ccc21` were, in that order, 3% and -0.66.
The like results for `CC[C@@H](C(=O)NCCOC)N(c1ccc(OC)cc1)c1nc(-c2ccc(F)cc2)cs1` were, in that order, -13% and 2.05.
The like results for `CCN(C[C@H]1CCCCO1)C(=O)COc1ccc(Cl)cc1C` were, in that order, -13% and 2.38.
Turning to `COCCN(CCOc1ccccc1F)Cc1nccn1CCOC`, the “% Inhibition” value was found to be 5% and the Z score is reported as -0.65.
`Fc1ccc(-c2cn(-c3ccc(S(F)(F)(F)(F)F)cc3)nn2)cc1`: the “% Inhibition” value is reported as -17% and the Z score was found to be 1.95.
The like results for `Cc1nc(-c2c(C)noc2C)sc1C(=O)N(C)CCN(C)C1CC1` were, in that order, -4% and 0.45.
Take `COc1cccc(CNC(=O)COCc2nnc(C(=O)Nc3cccc(F)c3)s2)c1`: the “% Inhibition” value was -5% and the Z score came out at 0.64.
`CCCNC(=O)COc1c(CC(=O)OC)cccc1OC`: the “% Inhibition” value turned out to be 1% and the Z score is recorded as -0.14.
The like results for `CCC[C@@H](CNC(=O)c1c[nH]nc1-c1cnn(CC)c1)OC` were, in that order, -4% and 0.36.
For the compound `Cc1nc(-c2ccccc2)sc1[C@H](C)NC(=O)N1CCC(C)(O)CC1`, the “% Inhibition” value is listed as -7% and the Z score is recorded as 0.88.
The like results for `O=C([C@H](O)c1ccccc1)N1CCc2[nH]nc(-c3ccc(F)c(F)c3)c2C1` were, in that order, -15% and 1.87.
With `COc1ncc(Br)cc1CNC(=O)Nc1nnn(C)c1C`, the “% Inhibition” value was -6% and the Z score was determined as 1.09.
In the case of `CCn1ncc(NC(=O)Cn2ccc(-c3cccn3C)n2)n1`, the “% Inhibition” value is 5% and the Z score is on record as -0.73.
The like results for `CCN1CCN(CCCN2CC3(CCN(c4cccc(C#N)n4)CC3)OC2=O)CC1` were, in that order, 1% and -0.13.
The like results for `COC(=O)c1cnc(NC[C@H]2Cc3ccccc3O2)c(S(=O)(=O)N2CCOCC2)c1` were, in that order, -2% and 0.41.
For the compound `CCc1nn(C)cc1CNC(=O)Nc1ccccc1N1CCOCC1`, the “% Inhibition” value was -8% and the Z score stood at 0.94.
The like results for `O=c1c2cnc(N3CCc4ccccc4C3)nc2ccn1-c1ccc(Cl)c(Cl)c1` were, in that order, -8% and 1.01.
The like results for `NC(=O)CC[C@H]1CCCN(c2ncnc3c2ncn3C2CC(CO)(CO)C2)C1` were, in that order, 1% and -0.17.
The like results for `N#Cc1cc(F)cc(C(=O)Nc2ccc([C@@H](O)c3cccs3)cc2)c1` were, in that order, 2% and -0.39.
For the compound `CCOc1ccccc1CNC(=O)c1ccc2c(c1)NC(=O)[C@@H]1CCCCN21`, the “% Inhibition” value is listed as -6% and the Z score came to 1.13.
The like results for `Cc1ncc(CN2CCc3c(cccc3NS(C)(=O)=O)C2)o1` were, in that order, 5% and -1.07.
The like results for `Cc1ccc(-n2nc(C(=O)N(C)C(C)C)nc2-c2ccco2)cc1` were, in that order, 2% and -0.23.
Turning to `Cc1ccc(C)c(-c2cnn(CC3CC3)c2)c1`, the “% Inhibition” value amounted to 0% and the Z score is on record as 0.02.
As to `Cc1ccc(CN(Cc2nc(C(=O)NCC(C)C)co2)[C@@H](C)C(C)C)c(C)c1`, the “% Inhibition” value is -8% and the Z score is recorded as 1.05.
The like results for `Cc1ccc(OCc2ccc(C(=O)NC3=NCC(=O)N3)o2)c(C)c1` were, in that order, -11% and 1.38.
As for `CN(Cc1ccc(Cl)cc1)CC1OCCO1`, the “% Inhibition” value was found to be 3% and the Z score is recorded as -0.52.
The like results for `CCCc1c(C(=O)N2CCNc3ncccc32)cnn1C1CCCC1` were, in that order, -7% and 1.14.
The like results for `CCn1c(=O)c(CCC(=O)Nc2ccc(F)cc2C)nc2c(C)nn(-c3ccccc3)c21` were, in that order, 0% and 0.04.
The like results for `CN(CCNC(=O)C(F)(F)Cl)S(=O)(=O)c1cccs1` were, in that order, -5% and 0.54.
For `O=C(Nc1nc2ncccc2[nH]1)c1cc(F)c(Cl)cc1F`, the “% Inhibition” value is recorded as -5% and the Z score amounted to 0.55.
The like results for `CC(C)c1ccc(-n2nc3nc(NCCN4CCOCC4)nc(-c4ccccc4)c3c2N)cc1` were, in that order, -2% and 0.24.
